According to PubChem BioAssay (NCI):
Several values for one entry are separate records, joined by “and”; a condition that tells them apart may be missing. Equal entries are not always repeated.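 Where inhibition never reached the appropriate level, the endpoint shown equals the highest concentration tested. Otherwise, values were interpolated linearly from a five-concentration, 48-hour dose response in 96-well plates. GI50 is the concentration that inhibits growth by half. TGI is the concentration that stops growth completely.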 Activity calls are given as the source filed them. No stated cut-off is given here; in the data, active means GI50 below about 0.43 µM; inactive means the rest. Peptide text beside a SMILES is read from it.

System: NCI-H322M lung
Experiment: inhibition of tumour cell growth, NCI panel, 48 h

SMILES | GI50 | TGI | outcome
O=[N+]([O-])c1ccc(C(Br)c2ccc([N+](=O)[O-])cc2)cc1 | 14.8 µM | 29.3 µM | –
CCCOP1(=O)C=C(O)C(Cl)=C(C)C1 (stereo not drawn) | – | > 100 µM | –
C1=C/COCc2cc(ccc2OCCN2CCCC2)Nc2nccc(n2)-c2cccc(c2)COC/1 | 0.578 µM and 0.957 µM | 4.95 µM and 5.61 µM | –
C[C@H](N)C(O)C/C=C\CC(O)/C=C/C=C\C/C=C\C/C=C\C/C=C\CCCCCCC(O)[C@H](C)N (stereo partly drawn) | – | – | inactive
CCNCCCCNCCCCNCCCCNCCCCNCC | – | > 100 µM | –
CCOC(=O)/C(=C\c1ccccc1)C(=O)CCN1CCOCC1 | – | 53.2 µM | –
Nc1ccccc1C#C/C=C\C#Cc1cnccn1 | 15 µM | 49.2 µM | –
O=C(Nc1ccc(-n2cc(-c3ccncc3)c(-c3ccc(O)c(Cl)c3)n2)cc1)c1cc(C(F)(F)F)cc(C(F)(F)F)c1 | 15.8 µM | > 25 µM | –
Cc1ccc(/C(=N/NS(=O)(=O)c2ccc([N+](=O)[O-])cc2)Sc2cc(Cl)c(C)cc2S(N)(=O)=O)cc1 | 18.9 µM | > 100 µM | –
CCC1=C(C)C(=O)N/C1=C\c1[nH]c(C)c([C@H](C)CCN)c1C | – | 27.9 µM | –
CC1(C)CCC2(CC1)N[C@@H](C(=O)N[C@@H]1CC[C@@H](C(N)=O)OC1)[C@H](c1ccnc(Cl)c1F)[C@]21C(=O)Nc2cc(Cl)ccc21 | 3.79 µM | 16 µM | –
C=C1C(=O)O[C@@H]2O[C@@]3(C)CC[C@H]4[C@H](C)CC[C@@H]1[C@@]24O3 | – | > 100 µM | –
CCc1c(-c2ccc(OC)cc2)c(=O)oc2cc(O)ccc12 | – | > 100 µM | –
CC(C)/C(Cl)=N\OC(=O)Nc1ccc(F)cc1 | – | 24.3 µM | –
N#Cc1c(-c2ccc(Cl)cc2)csc1NC(=O)Nc1ccc(Cl)c(C(F)(F)F)c1 | 1.12 µM | 33.5 µM | –
O=C1c2ccccc2-c2nc(-c3ccncc3)cc3c2c1nc1ccccc13 | – | > 100 µM | –
COC(=O)[C@@H]1C[C@@]23CCCN4CC[C@@]5(c6cccc(OC)c6N(C=O)[C@]15CC2)[C@@H]43 | – | > 100 µM | –
COc1cc(CN[C@H]2CCc3cc(OC)c(OC)c(OC)c3-c3ccc(SC)c(=O)cc32)cc(OC)c1 | < 0.01 µM | > 100 µM | –
Cc1cccc2c1CC(C1OC(=O)c3ccccc31)C2=O (stereo not drawn) | – | > 100 µM | –
N#CC[C@@H](O)COc1ccccc1 | – | > 100 µM | –
C[C@]12CC[C@H](O)CC1=CC[C@@H]1C2CC[C@]2(C)c3n[nH]nc3CC12 (stereo partly drawn) | – | > 100 µM | –
O=C(ON=c1c2ccccc2ccc2ccccc12)c1ccccc1 | – | 76.9 µM | –
CCOC(=O)C1C(c2ccccc2)=C(c2ccccc2)C(c2ccccc2)=C1c1ccccc1 | – | > 100 µM | –
COC(=O)[C@@H](C)C[C@H](Cc1ccccc1)NC(=O)c1cccc([C@@H](C[C@H](C(C)C)N(C)C(=O)[C@@H](NC(=O)[C@H]2CCCCN2C)C2CC2)OC(C)=O)n1 | – | 33.3 µM and > 100 µM | –

SMILES | GI50 | TGI | outcome
Cc1c(S(=O)(=O)/N=C(\NN)Nc2ccc(Cl)cc2)sc2ccc(Cl)cc12 | – | 31.1 µM | –
O=c1c2c([nH]c3ccccc13)CCCC2 | > 100 µM | > 100 µM | –
COc1cccc(/C=C/c2ccc(S(N)(=O)=O)cc2)c1 | – | > 100 µM | –
COc1ccc(/C=C/c2nsc(/C=C/c3ccc(OC)cc3)n2)cc1 | – | > 100 µM | –
O=C1C=CC(=O)c2c(O)c(N3CCN(c4ccccn4)CC3)c(Cl)c(O)c21 | – | 6.23 µM | –
COc1ccc([C@@H]2C[C@@H]3C(=O)OC(=O)[C@@H]3c3c2c2ccccc2n3C)cc1 | – | > 100 µM | –
CCOC(=O)C(C(CC(=O)OC)NC(=O)OCc1ccccc1)C1(C)OCCO1 (stereo not drawn) | – | > 100 µM | –
CN(C)c1ccc(Nc2ncnc3ccccc23)cc1 | > 100 µM | > 100 µM | –
Cn1c2c([N+](=O)[O-])cccc2c(=O)c2c(O)cc3c(c21)C=CC(C)(C)O3 | – | > 100 µM | –
O=C1C=CC(=O)c2c(O)ccc(O)c21 | – | 16.3 µM | –
CC(=O)[CH-]C(=O)c1ccccc1.CC(=O)[CH-]C(=O)c1ccccc1.CCN(CC)CC[O-].CCN(CC)CC[O-].Cl.[Hf+4] | > 100 µM | > 100 µM | –
CC(C)N(C(=O)C12C3C4C1C1C2C3C41C(=O)O)C(C)C (stereo not drawn) | – | > 100 µM | –
CCN1C(=O)C(=C/C=C/c2ccc(OC)cc2)C(=O)N(CC)C1=S | – | > 100 µM | –
CCOC(=O)Cc1csc(NC(=O)COC(=O)c2ccc(N)cc2)n1 | > 100 µM | > 100 µM | –
CCN1C(=O)N(C)C(O)c2c1nc1ccccn1c2=O (stereo not drawn) | – | 88.3 µM | –
c1ccc(NNC2=NCCN2)cc1 | – | > 100 µM | –
C=CCC1OC(=O)CCNC(=O)[C@H](C)N(C)C(=O)[C@H](C(C)C)N(C)C(=O)[C@H](C(C)CC)NC(=O)[C@@H]2CCCN2C1=O (stereo partly drawn) (HELM PEPTIDE1{[CCC(C)[C@H](N[*:1])C(=O)[*:2]].[meV].[meA].[bAla].[C=CCC(O[*:1])C(=O)[*:2]].P}$PEPTIDE1,PEPTIDE1,1:R1-6:R2$$$V2.0) | – | > 100 µM | –
COc1ccc(S(=O)Cc2cc(OC)c(OC)c(OC)c2)cc1 (stereo not drawn) | – | > 100 µM | –
Nc1n[n+](=O)c2ccccc2n1O | – | > 100 µM | –
O=C1C(Cl)C(c2cc(Br)cc(Br)c2O)N1n1cnc2ccccc2c1=O (stereo not drawn) | – | 53.8 µM | –
COc1ncc(-c2ccc3nccc(C#CCCCCC(=O)O)c3c2)cc1NS(=O)(=O)c1ccc(F)cc1F | 0.456 µM | 12.7 µM | –
CN(NC(=O)/C(=C/c1ccc(Cl)cc1)NC(=O)c1ccccc1)c1cn[nH]c(=O)c1Cl | – | > 100 µM | –
CC(/C=N/N(C)C1=NCCCN1)=N/N(C)C1=NCCCN1 | – | > 100 µM | –
O=C1c2ccccc2C(=O)c2c1c(=O)c(=O)c1ccccc1c(=O)n2Cc1ccccc1 | 67.7 µM | > 100 µM | –

SMILES | GI50 | TGI | outcome
CCC1CC(C)C(O)/C=C/C=C/CC(C)OC(=O)CC(O)C(OC)C1OC1OC(C)CC(O)(C(C)=O)C1O (stereo not drawn) | – | > 100 µM | –
CC(=O)OC1CC2CC(=O)CC1N2C (stereo not drawn) | – | > 100 µM | –
COC(=O)CCC1=NOC(CC2CC(CCC(=O)OC)=NO2)C1 (stereo not drawn) | – | > 100 µM | –
O=C1c2ccccc2C(=Nc2ccc3ccccc3c2)C1(C1=C(c2ccccc2)C(=Nc2ccc3ccccc3c2)c2ccccc21)c1ccccc1 (stereo not drawn) | – | > 100 µM | –
O=C1c2scc(-c3ccccc3)c2-n2cccc21 | – | 60.4 µM | –
CC1(F)C=CC(=O)C=C1 | – | > 100 µM | –
NCCCCCCn1c(-c2ccc(Br)cc2)csc1=Nc1ccccc1 | – | 25.7 µM | –
O=Cc1c(O)ccc2ccc(O)c(-c3c(O)ccc4ccc(O)cc34)c12 | – | > 100 µM | –
COc1ccc2c(c1)C1C(CO2)C(c2ccccc2)=NN1c1ccccc1 (stereo not drawn) | – | > 100 µM | –
COc1ccc(C23OCC(Cc4cc(OC)c(OC)cc42)C3COC(C)=O)cc1OC (stereo not drawn) | – | > 100 µM | –
O=C1CSC(c2ccccc2O)N1c1ccc(-c2ccc(-n3c(-c4ccccc4)nc4ccccc4c3=O)cc2)cc1 (stereo not drawn) | – | 65.2 µM | –
CCCc1nc(N)nc(C(=O)Nc2cccc(C(F)(F)F)c2)c1CC | – | > 100 µM | –
CN(C)c1nc(=Nc2ccc3c(c2)OCO3)ss1 | – | > 100 µM | –
O=c1[nH][nH]c(=O)n1Cc1cccc(Cn2c(=O)[nH][nH]c2=O)c1 | – | > 100 µM | –
O=C1NC2c3c(I)sc(I)c3/C(=N\O)C2O1 (stereo not drawn) | – | > 100 µM | –
Cn1c(C(O)C2(c3cccnc3)SCCCS2)cc2ccccc21 (stereo not drawn) | – | > 100 µM | –
CCN(C(=N)C#N)c1ccccc1 | – | > 100 µM | –
NCCc1c[nH]c2ccc(OC(=O)C(=O)O)cc12 | – | > 100 µM | –
COC(=O)Cc1cccc2c1CCC2=O | – | > 100 µM | –
C/C(=N\NC(=S)Nc1ccccc1)c1nc2ncccc2[nH]1 | – | > 100 µM | –
COc1cc(/C=C2/SC(c3ccccc3)N(c3cccc(NC(C)=O)c3)C2=O)cc(OC)c1OC (stereo not drawn) | – | > 100 µM | –
CC1=C(C(=O)OCc2ccncc2)C(C2=C(C)SCCS2)C(C(=O)OCc2ccncc2)=C(C)N1 | – | > 100 µM | –
O=C(/C=C/c1cc2ccccc2[nH]c1=O)c1ccc(Cl)cc1 | 49.7 µM | > 92.4 µM | –
CN(/N=C(\C(=O)O)c1ccccc1)C1=NCCCCN1 | – | > 100 µM | –

SMILES | GI50 | TGI | outcome
COc1ccc(-c2c(-c3cc(OC)c(OC)c(OC)c3)nc3sc(C4CC4)nn23)cc1OC | 13.5 µM | > 100 µM | –
Cc1cccc(C(C)(C)C)c1NC(=O)CCl | – | > 100 µM | –
O=C(NC(=S)Nc1ccccn1)c1ccccc1 | > 100 µM | > 100 µM | –
Oc1ccc(-c2nc3ccc4ccccc4c3c3c2CCCC3)c(O)c1 | – | > 100 µM | –
CCCCCOc1ccc(C=Nc2ccc(-c3ccc(N=Cc4ccc(OCCCCC)cc4)c(OC)c3)cc2OC)cc1 | – | > 100 µM | –
CCCCC(=O)OC[n+]1cccc(-c2c(COC(=O)NC(C)C)c(COC(=O)NC(C)C)c3n2CCC3)c1 | – | > 100 µM | –
C=CCSc1nc2c(N)ncnc2n1C1OC(CO)C(O)C1O (stereo not drawn) | – | > 100 µM | –
COc1ccc(Nc2nn3c(=O)c4c(C)c(C)sc4nc3s2)cc1 | – | > 100 µM | –
C=CCn1c(SCC(=O)Nc2ccc(C(=O)/C=C/c3cc(OC)c(OC)c(OC)c3)cc2)nnc1-c1ccc(Cl)cc1 | 4.89 µM | 71.2 µM | –
CC(C)=CC(=O)c1[nH]c2ccccc2c1CC(=O)NCCc1cn(C(c2ccccc2)(c2ccccc2)c2ccccc2)cn1 | – | > 100 µM | –
c1cc(-c2ccc(-c3ccc(-c4ccc(-c5cccc6nsnc56)[nH]4)c4nsnc34)[nH]2)c2nsnc2c1 | – | > 100 µM | –
Cc1nc2c(n1CC(C)C)C(=O)c1ccccc1C2=O | – | > 100 µM | –
Cc1cc(NS(=O)(=O)c2ccc(Nc3c4ccccc4nc4c(C(=O)Nc5ccc(S(N)(=O)=O)cc5)cccc34)cc2)no1 | – | 65.4 µM | –
O=C1NC(=O)/C(=C/c2c(Cl)nc3sccn23)S1 | > 89.1 µM | > 100 µM | –
Cc1c([C@H](C(Cl)Cl)[C@H](O)[C@H]2C[C@H](C)C(=O)O2)ccc2c1C(=O)[C@H]1[C@H]2C[C@@H](Br)[C@@]23O[C@@H](CO[C@H]2O)CC13C (stereo partly drawn) | 0.887 µM | > 50 µM | –
COC(=O)[C@]12CC[C@H]3CN(C(=O)OCc4ccccc4)[C@H]([C@H]31)[C@H](c1ccco1)N2 | – | > 100 µM | –
CCN(CC)CCCC(CO)Nc1ccnc2cc(Cl)ccc12 (stereo not drawn) | 43.9 µM and 65.4 µM | > 100 µM | –
CNC(=O)C(CCc1ccccc1)NC(=O)C(CC(=O)NO)CC(C)C (stereo not drawn) | > 25 µM | > 25 µM | –
Fc1c(F)c(F)c2c(c1F)CSc1nc3ccccc3n1-2 | – | > 100 µM | –
COc1cccc2c1C(=O)c1c(O)c3c(c(O)c1C2=O)CC(O)(/C(C)=N/NC(=O)CCCCC(=O)N/N=C(\C)C1(O)Cc2c(O)c4c(c(O)c2C(OC2CC(N)C(O)C(C)O2)C1)C(=O)c1c(OC)cccc1C4=O)CC3OC1CC(N)C(O)C(C)O1 (stereo not drawn) | 1.01 µM | > 33.2 µM | –
O=C1O[C@@H](c2ccccc2)C[C@H]1CN1CCOCC1 | – | > 100 µM | –
CCOC(=O)NC(=O)c1cn(CCCOC(=O)CCCCCCCCC(=O)OCCCn2cc(C(=O)NC(=O)OCC)c(=O)n(C)c2=O)c(=O)n(C)c1=O | – | > 100 µM | –
CC(=O)Oc1ccc2[nH]c3c(C)c4cccc-4ccc3c2c1 | – | 5.39 µM | –
